Data as given in US20230174604A1 (Innovent, published 2023).
Read-outs that look alike come from different tables or passages of the source.

T1: IL-2Rα (CD25) on primary human CD8+ CD25+ T cells (human, UniProt P01589 22-272)
T1 sequence (looked up): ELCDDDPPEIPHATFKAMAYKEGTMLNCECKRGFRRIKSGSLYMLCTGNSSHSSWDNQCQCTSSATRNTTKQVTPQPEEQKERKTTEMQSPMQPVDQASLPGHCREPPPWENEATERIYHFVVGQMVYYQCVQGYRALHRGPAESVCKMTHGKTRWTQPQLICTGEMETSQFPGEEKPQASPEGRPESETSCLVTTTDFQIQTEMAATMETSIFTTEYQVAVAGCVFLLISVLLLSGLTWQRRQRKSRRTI

T2: IL-2Rα-Biotin (biotin-labeled human IL-2Rα, UniProt P01589 aa22-217, with C-terminal avi tag and His6 tag) (human, UniProt P01589 22-217, biotin on the avi tag (enzymatic labeling with BirA))
T2 construct: Expressed in HEK293-F, monomer peak collected; loaded on SA sensor or used to stain yeast; also called CD25; IL-2Rα receptor
T2 sequence: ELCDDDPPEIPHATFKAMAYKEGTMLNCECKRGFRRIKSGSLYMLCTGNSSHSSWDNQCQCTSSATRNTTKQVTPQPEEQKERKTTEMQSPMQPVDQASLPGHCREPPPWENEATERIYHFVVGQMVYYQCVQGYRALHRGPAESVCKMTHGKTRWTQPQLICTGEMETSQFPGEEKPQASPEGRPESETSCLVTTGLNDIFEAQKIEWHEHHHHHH

T3: IL-2Rβ IH-Biotin (biotin-labeled human IL-2Rβ, UniProt P14784 aa27-240, with C-terminal avi tag and His6 tag) (human, UniProt P14784 27-240, biotin on the avi tag (enzymatic labeling with BirA))
T3 construct: In-house protein, distinct from the Acro Biosystems IL-2Rβ-Biotin used only for library sorting; also called IL-2Rβ receptor
T3 sequence: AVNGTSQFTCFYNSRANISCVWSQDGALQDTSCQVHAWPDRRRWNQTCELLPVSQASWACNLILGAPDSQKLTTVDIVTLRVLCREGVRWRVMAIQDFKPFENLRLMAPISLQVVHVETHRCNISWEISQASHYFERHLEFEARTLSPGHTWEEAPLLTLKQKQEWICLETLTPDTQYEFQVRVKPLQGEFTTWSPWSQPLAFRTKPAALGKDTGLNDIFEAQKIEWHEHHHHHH


How the values were obtained:
[1] = target: T1, IL-2Rα (CD25) on primary human CD8+ …; assay: cell-based or functional assay
[2] = target: T2, IL-2Rα-Biotin (biotin-labeled human …); assay: ForteBio BLI, biotinylated receptor on SA sensor, 100 nM IL-2-FC in solution, 1:1 model (avidity)
Procedure: (§1) The ForteBio affinity assay was conducted according to the method (Estep, P et al., High throughput solution Based measurement of antibody-antigen affinity and epitope binding. mAbs, 2013.5 (2): p. 270-8) known in the art. […] The kinetic analysis was performed using a 1:1 binding model.
(§2) In the assay described above, the affinity KD values of IL-2^mutant-FC fusion proteins expressed by HEK293-F cells for their receptors are shown in Table 3. As a control, the affinity KD values of the IL-2^WT-FC and IL-2^3X-FC fusion proteins measured using the same method are also shown in Table 3.

[3] = target: T3, IL-2Rβ IH-Biotin (biotin-labeled human …); assay: as above
Procedure: as §1
(§3) The following mutant proteins were subjected to affinity KD value determination according to the ForteBio affinity determination method described in Example 2.

[4] = target: T2, IL-2Rα-Biotin (biotin-labeled human …); assay: ForteBio BLI, biotinylated receptor on SA sensor
[5] = target: T3, IL-2Rβ IH-Biotin (biotin-labeled human …); assay: ForteBio BLI, biotinylated receptor on SA sensor, 100 nM IL-2-FC in solution, 1:1 model (avidity); remark: listed apart in the source
Procedure: as §1, §2

[6] = target: T2, IL-2Rα-Biotin (biotin-labeled human …); assay: ForteBio BLI, biotinylated receptor on SA sensor; remark: listed apart in the source
Procedure: as §1, §3

Binder	Ratio of CD25^- EC50/CD25^+ EC50 [1]	Kd [2]	Kd [3]	binding result [4]	Kd [5]	binding result [6]
IL-2^WT-FC fusion protein (IL-2^WT-2*(G4S)-FcLALA) (Fc fusion, also called Y045) not shown	1980 ratio	10 nM				
IL-2 mutant Y30E1 (K35E, T37E, R38E, F42A)-FC fusion protein (Fc fusion) APTSSSTKKTQLQLEHLLLDLQMILNGINNYKNPELEEMLTAKFYMPKKATELKHLQCLEEELKPLEEVLNLAQSKNFHLRPRDLISNINVIVLELKGSETTFMCEYADETATIVEFLNRWITFSQSIISTLTGGGGSGGGGS[here human IgG1 Fc with changes without letters]	1.72 ratio		6.45 nM	no binding (tested: 100 nM IL-2-FC)	5.9 nM	
IL-2^3X-FC fusion protein (IL-2^.3X-2*(G4S)-FcLALA) (Fc fusion, also called Y040) APTSSSTKKTQLQLEHLLLDLQMILNGINNYKNPKLTDMLTFEFYMPKKATELKHLQCLERELKPLEEVLNLAQSKNFHLRPRDLISNINVIVLELKGSETTFMCEYADETATIVEFLNRWITFSQSIISTLTGGGGSGGGGS[here human IgG1 Fc with changes without letters]				no binding (tested: 100 nM IL-2-FC)		
Y093 (IL-2^.Y30E1.truncate1.K76A-2*(G4S)-FcLALA) (Fc fusion) APTSSSTKKTQLQLEHLLLDLQMILNGINNYKNPELEEMLTAKFYMPKKATELKHLQCLEEELKPLEEVLNLAQSANFHDLISNINVIVLELKGSETTFMCEYADETATIVEFLNRWITFSQSIISTLTGGGGSGGGGS[here human IgG1 Fc with changes without letters]	2.79 ratio		1.96 nM			no binding (tested: 100 nM IL-2-FC)
Y144 (IL-2^.Y30E1.15BCL.T3A-2*(G4S)-FcLALA) (Fc fusion) APASSSTKKTQLQLEHLLLDLQMILNGINNYKNPELEEMLTAKFYMPKKATELKHLQCLEEELKPLEEVLNLAGDASIHDLISNINVIVLELKGSETTFMCEYADETATIVEFLNRWITFSQSIISTLTGGGGSGGGGS[here human IgG1 Fc with changes without letters]			1.55 nM			no binding (tested: 100 nM IL-2-FC)

More lines, now with the values ahead:

Ratio of CD25^- EC50/CD25^+ EC50 [1]	Kd [2]	Kd [3]	binding result [4]	Kd [5]	binding result [6]	Binder
1.78 ratio		3.27 nM			no binding (tested: 100 nM IL-2-FC)	Y092 (IL-2^.Y30E1.15BCL-2*(G4S)-FcLALA) (Fc fusion) APTSSSTKKTQLQLEHLLLDLQMILNGINNYKNPELEEMLTAKFYMPKKATELKHLQCLEEELKPLEEVLNLAGDASIHDLISNINVIVLELKGSETTFMCEYADETATIVEFLNRWITFSQSIISTLTGGGGSGGGGS[here human IgG1 Fc with changes without letters]
5.94 ratio		4.53 nM			no binding (tested: 100 nM IL-2-FC)	Y089 (IL-2^.Y30E1.truncate1-2*(G4S)-FcLALA) (Fc fusion) APTSSSTKKTQLQLEHLLLDLQMILNGINNYKNPELEEMLTAKFYMPKKATELKHLQCLEEELKPLEEVLNLAQSKNFHDLISNINVIVLELKGSETTFMCEYADETATIVEFLNRWITFSQSIISTLTGGGGSGGGGS[here human IgG1 Fc with changes without letters]
2.89 ratio		3.35 nM			no binding (tested: 100 nM IL-2-FC)	Y094 (IL-2^.Y30E1.truncate1.K76D-2*(G4S)-FcLALA) (Fc fusion, also called IL-2^.Y30E1.truncate1.K67D-2*(G4S)-FcLALA) APTSSSTKKTQLQLEHLLLDLQMILNGINNYKNPELEEMLTAKFYMPKKATELKHLQCLEEELKPLEEVLNLAQSDNFHDLISNINVIVLELKGSETTFMCEYADETATIVEFLNRWITFSQSIISTLTGGGGSGGGGS[here human IgG1 Fc with changes without letters]
